The other results are listed elsewhere or left out. At the low end of the ranking, values are background and their order means little. Measured with an extract: partners may take part in the binding.

For the assay, the target named is T1, HNF4alpha2 (COS-7 nuclear extract) (UniProt P41235).
T1 sequence: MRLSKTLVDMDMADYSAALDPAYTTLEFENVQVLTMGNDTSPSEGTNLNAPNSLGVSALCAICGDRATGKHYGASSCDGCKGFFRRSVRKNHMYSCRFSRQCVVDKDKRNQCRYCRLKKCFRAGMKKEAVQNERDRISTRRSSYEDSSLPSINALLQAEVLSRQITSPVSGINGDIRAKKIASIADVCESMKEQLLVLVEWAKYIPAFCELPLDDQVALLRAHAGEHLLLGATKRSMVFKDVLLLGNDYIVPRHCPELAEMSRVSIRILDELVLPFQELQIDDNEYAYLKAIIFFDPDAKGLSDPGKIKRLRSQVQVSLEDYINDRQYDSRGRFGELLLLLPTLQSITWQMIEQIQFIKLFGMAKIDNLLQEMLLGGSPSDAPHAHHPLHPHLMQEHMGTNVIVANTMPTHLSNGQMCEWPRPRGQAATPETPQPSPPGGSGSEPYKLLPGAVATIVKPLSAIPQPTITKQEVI
The experiment in a line: protein-binding microarray. The following applies: COS-7 nuclear extract on double-stranded Agilent 4x180k PBM; binding buffer, salt, pH and temperature not given; high values mean tight binding; double strand, one strand shown; sequences stand for … in …GCCTAGGGAGATTAGAGTATCGGTCGA
In the case of TAGGTCTTTTGGTGAGTCTTTGCCCCTGGA, the binding signal (log2 normalized intensity) was found to be 3.46.
Under ATTCCAAGGACTGAGATAAGAGAAGGGGTC stands 0.653; under CTACAGGTATGCCTTTGAAGAGTACAGCCT, -0.571; under TGTCGTTTGCTTAGTCTTATCTGAGGTGCC, 0.932.
Under AGTGCAGTATGCGCTCTGGGAAACAGCACT stands -0.984.
For AGGGGACTTCGCTGGAGGTGTTAAAGTGCC, the binding signal (log2 normalized intensity) is -0.669.
Turning to AGCCACCTGTCACTCAATGCAGCAGCATTG, the binding signal (log2 normalized intensity) is -1.21.
As to GAGGTATGCCAGGAATGCTGAGGAGGGCCT, the binding signal (log2 normalized intensity) is -1.14.
TGCTCATAGCTACGGGTGACCTTGAGCACT: the binding signal (log2 normalized intensity) was found to be 3.2.
Take CTCAGCAAAGTCAGGTCAGTAGCCCAGGGT: the binding signal (log2 normalized intensity) is -0.856.
Under TTACCTTGGCAGCCACTGAGGCTCTGTGCC stands -1.08.
On to CAGAGTGATCTTTGAAACATAACAGCAACA, for which the binding signal (log2 normalized intensity) came out at 0.913.
Under TGATTAGAAGAAAAGAGTTGCTCAAACCAA stands -0.928; under GTGGTGCTGTCCAAGGTGCTAGCTCCGACT, -1.09; under TTTCATGTTGTTTAGTCATGCCGAACTTTC, 1.21.
Under TAGTATCACTGTGAAGACGTTAGGGGGCAG stands 0.128; under TCGCCACTACAAAGGGAATCAGGTTTTCAG, -1.05; under TAAAGAGACAAAAGTCCGGAATTTCCTCCT, -1.05.
As to CACATAATGATACCAACAGGCTTAACATAA, the binding signal (log2 normalized intensity) was -1.19.
Take CAGGACCTCGGCTCGGCCCCAGTCCCCCGG: the binding signal (log2 normalized intensity) was 3.72.
Consider GCTATCTTATCTTTGACCTTACCAGCCCAC, for which the binding signal (log2 normalized intensity) came out at 2.3.
On to CGCCTGAACTTTGATCAGCATTCAAATGAG, for which the binding signal (log2 normalized intensity) was 3.85.
Under AGGCGTATCTTTCTCAAGGACCTAGAGCTA stands -1.08; under AGTTTTTCCCATTCATAAAATTACGCCACA, -0.883; under GGGGTGACCAGATTAATTACCCACAGGTGT, -0.825.
As to CCACTTGGGCTTCCTCATCTGTTTATCTTT, the binding signal (log2 normalized intensity) turned out to be 1.32.
With CGCAGGGCGGACAGCGCCGCCACCCGGTTG, the binding signal (log2 normalized intensity) was -1.08.
Under TAATCCCTGAGCCTGGACCTTGGAATGTCA stands 3.33.
Under GACATGGCTGTATGTGACATGGACATTCTA stands 1.14.
In the case of GGTGTAAGCTCTGGAGTCCAAAGGTCAGCA, the binding signal (log2 normalized intensity) was determined as 8.34.
Under GGCTCCCTGGGGTTAAAATGTTTACTGAAG stands 0.875.
As to CATTGCTCAGACAGGGCAAAGGTGCCAGGT, the binding signal (log2 normalized intensity) turned out to be 0.812.
Under CAGAGATCTAGGTGAGGGATGAGGACTTTG stands 1.72.
Under CAGAGAGAAGCCACTGCGACCTTTGCCCTC stands 9.89; under ACCACACCACAGCGGGGCCTCTGTGTGGGG, -0.897.
With TCCCAAGGCAGCAATCCCCTGCAATACAGC, the binding signal (log2 normalized intensity) came to 0.381.
With TCCAGGGTCACGTGCCGCTGCGGGTCACGT, the binding signal (log2 normalized intensity) stood at 2.35.
Under CTTGGGGTCAAAGTACATCCCCTAAAACAT stands 5.71; under CTGACCTCAAGTGACCTTTGACCTCTGGCC, 11; under AGGAGTGGTCCTGCTCAAAGGGGAAAGAGG, -1.1.
Under AACCTCCGCGATTCCCGCCGCCTCCGCTGG stands -1.09.
For CTTTCTAAAGTATGTGGTGGGTGTGGTGAT, the binding signal (log2 normalized intensity) is 2.51.
Under CCATTAAACATCAGTTTGCATATGCCACAG stands 0.563; under TCAGCTATCAGTTTACATTCCAGGGTGAAA, 0.6; under GTCAGACCAGACAGCACCTCTCTGATGCCA, -1.13.
Under CACAAACATACAACCATCAAAGGTCACTTT stands 4.1.
For TCAGTTAATGTACAGAGTATAATAAAGTGG, the binding signal (log2 normalized intensity) stood at 1.3.
Under AGTTCCATGAGTTAGTGCCCTCTGGTGGCA stands 1.91.
Under TGGCTCCTCACCTCCAGGGAGGGGAGAGGG stands -1.13; under GACGTGACCCGCCGCCCGAGGTCACTGTAT, 2.98; under TCTGGAAGGAAGGAGGGAGGCAGGGAGACA, -1.19.
Under GTTACTGGAGGCTGGAGCTCCTGGGCCAAA stands -1.22.
Regarding TATCAGCAAGGAAATAAAAGAGCCTGAGCC, the binding signal (log2 normalized intensity) was -1.12.
For CTGCAGATTGACTCAGGCATTCTGACCTTT, the binding signal (log2 normalized intensity) came out at 6.93.
Under CCAGCACTGTCAGCAGGGGGATCCACTTCC stands -1.21.
Under GACAAAGCACAATCAAAGCAATGGCTACCA stands -1.13; under GTATTTTTGCAATCCTCCACTCTCCAAAAT, -0.386.
Under GCGCGGCGCGCTGGGAAGGCTCGTTCTCGC stands -0.789; under CCCAGGAGCACAAATAACATTCCTAACATT, -1.16; under CAGTAGAAAACAGAGAAGCCGTGGTGCTGT, -0.794.
On to GTTCAGTTAGAGGGCTCAATGGATACACCA, for which the binding signal (log2 normalized intensity) is -0.705.
Under TTCTTGTATCTGATCTGTGTTTCCACAAAC stands 1.49; under GGAGGCTCAGAGTCTGTGGAGACACTGCCA, -1.06; under GAGAAACACATAAACCCTGACCCTCAAGGG, -0.481.
As for CCACAGTATCCCTTGCTCAACTCCCTCTGA, the binding signal (log2 normalized intensity) is -1.18.
On to CAAACAAATGCAAAACTGGCAAAACTGGTC, for which the binding signal (log2 normalized intensity) is -1.03.
Under TAATCACTGCCCTTTGGTGCCTCTTTTTTC stands 2.13.
Under GCTGCCCTGGTAAGTTCCACTGCATCAGTG stands -1.02; under TTGATCATTCCTGCACAGGACTGCTCTCTA, -0.803; under TTTTAAGGTCTGGCATTCTTTTTGACCTTT, 7.55.
Under TAGGTTATCTTTGGAGAATGCCTTTTGTGT stands 2.15.
AGAAGGCAAAAATGCAGGCAATGAATAGAA: the binding signal (log2 normalized intensity) was -1.06.
Under TGTTTTTTGCCCTTTGTACCCACACACACC stands 6.48.
